Measurements: the supplement of paper PMC6135742
Counter-ions that a name gives are not always drawn. ± gives the standard deviation of the averaged measurements. The full ranking holds about 2,600 compounds; the median of “MBP+ mature oligodendrocyte number relative to DMSO vehicle control” is about -0.34, and the highest 2% start at about 13. The list shows a part of the results.

The compounds below were run on jimpy (Plp1 jimpy) mouse iPSC-derived oligodendrocyte progenitor cells (assay: MBP+ mature oligodendrocyte number relative to DMSO vehicle control (SDs above negative control mean); higher = more surviving jimpy oligodendrocytes (rescue)). Settings: 10 µM; 3 days.
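Note: 10 µM single dose with 3-day oligodendrocyte differentiation.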

SMILES	MBP+ mature oligodendrocyte number
O=c1[nH]cnc2c1ncn2[C@H]1CC[C@@H](CO)O1 [Didanosine]	0.793
Fc1ccc([C@@H]2CCNC[C@H]2COc2ccc3c(c2)OCO3)cc1 [Paroxetine hydrochloride hemihydrate (MW = 374.83)]	< -3.34
Fc1ccc([C@@H]2CCNC[C@H]2COc2ccc3c(c2)OCO3)cc1 [Paroxetine HCl]	-5.77
Nc1nc(O)c2ncn(CCC(CO)CO)c2n1 [Penciclovir]	3.36
NC(CO)C(=O)NNCc1ccc(O)c(O)c1O (centres undefined) [Benserazide HCl]	0.395
NC(CO)C(=O)NNCc1ccc(O)c(O)c1O (centres undefined) [Benserazide hydrochloride]	0.392
CN(C)CCCN1c2ccccc2CCc2ccccc21 [Imipramine hydrochloride]	-1.73
C[C@H]1COc2c(N3CCN(C)CC3)c(F)cc3c(=O)c(C(=O)O)cn1c23 [Levofloxacin]	3.76
CCCC(=O)OCOC(=O)C1=C(C)NC(C)=C(C(=O)OC)C1c1cccc(Cl)c1Cl (centres undefined) [Clevidipine Butyrate]	-0.737
CC(C)CN(C[C@@H](O)[C@H](Cc1ccccc1)NC(=O)O[C@H]1CO[C@H]2OCC[C@H]21)S(=O)(=O)c1ccc(N)cc1 [Darunavir Ethanolate]	2.59
O=C(O)CSCC(=O)NC1CCSC1=O (centres undefined) [Erdosteine]	1.6
Cc1cc2c(F)c(Oc3ncnn4cc(OC[C@@H](C)O)c(C)c34)ccc2[nH]1	-1.37
O=C1C(SCCO)=C(SCCO)C(=O)c2ccccc21	-1.17
COc1cc(/C=C/C(=O)CC(=O)/C=C/c2ccc(O)c(OC)c2)ccc1O [Curcumin]	-5.06
Cc1nc2n(c(=O)c1CCN1CCC(c3noc4cc(F)ccc34)CC1)CCCC2O (centres undefined) [Paliperidone]	0.555
CC(=O)OCC1=C(C(=O)O)N2C(=O)[C@@H](NC(=O)Cc3cccs3)[C@H]2SC1 [Cephalothin sodium]	-0.119
C=CCn1c(=O)c2cnc(Nc3ccc(N4CCN(C)CC4)cc3)nc2n1-c1cccc(C(C)(C)O)n1	< -5.15
Clc1ccc(C(Cn2ccnc2)OCc2csc3c(Cl)cccc23)c(Cl)c1 (centres undefined) [Sertaconazole nitrate]	-3.39
O=C(Nc1cccc2cccnc12)c1ccc(N2C(=O)[C@@H]3[C@H](C2=O)[C@@H]2C=C[C@H]3C2)cc1 [IWR-1-endo]	-3.56
CC1(C)S[C@@H]2[C@H](NC(=O)Cc3ccccc3)C(=O)N2[C@H]1C(=O)O [Penicillin G Sodium]	1.67
CCCCc1nc(Cl)c(CO)n1Cc1ccc(-c2ccccc2-c2nnn[nH]2)cc1 [Losartan Potassium (DuP 753)]	1.59
c1cn2cc(-c3ccc4cn[nH]c4c3)nc(Nc3ccc(N4CCOCC4)cc3)c2n1	-1.1
O=C1OC(CN2CCOCC2)CN1/N=C/c1ccc([N+](=O)[O-])o1 (centres undefined) [Furaltadone HCl]	-1.2
O=C1c2c(O)cc(O)cc2O[C@H](c2cc(O)c(O)c(O)c2)[C@H]1O [Dihydromyricetin]	1.91
Cc1ccc(-c2c(-c3nn(C)c4ncnc(N5CC[C@H](N6CCCCC6)C5)c34)cnn2C)cc1	0.342
CNCCCN1c2ccccc2CCc2ccccc21 [Desipramine hydrochloride]	-4.21
CCOc1cc(N)c(Cl)cc1C(=O)NCC1CN(Cc2ccc(F)cc2)CCO1 (centres undefined) [Mosapride Citrate]	23

SMILES	MBP+ mature oligodendrocyte number
Cc1cccc(Nc2ccccc2C(=O)O)c1C [Mefenamic Acid]	0.407
CCC(C)n1ncn(-c2ccc(N3CCN(c4ccc(OCC5COC(Cn6cncn6)(c6ccc(Cl)cc6Cl)O5)cc4)CC3)cc2)c1=O (centres undefined) [Itraconazole]	< -3.97
C[C@H]1[C@H](OC(=O)CCC(=O)O)O[C@@H]2O[C@@]3(C)CC[C@H]4[C@H](C)CC[C@@H]1[C@@]24OO3 [Artesunate]	< -3.97
CC(N)C(=O)OC(C)(C)Cc1ccc(Cl)cc1 (centres undefined) [Alaproclate hydrochloride]	0.313
CC(C)NCC(O)c1cc(O)cc(O)c1 (centres undefined) [Metaproterenol hemisulfate]	-0.676
O=[N+]([O-])c1cc2nc(O)c(O)nc2cc1[N+](=O)[O-]	2.02
CC(=O)/C(C)=N/O [2,3-Butanedione monoxime]	-0.865
CCCCCCCCCCCCCCSCC(=O)O [Tetradecylthioacetic acid]	0.00298
O=C(O)CN(CCN(CC(=O)O)CC(=O)O)CCN(CC(=O)O)CC(=O)O [Diethylenetriaminepentaacetic acid]	-1.59
CC(C)(CO)Cc1cc(C(C)(C)C)c(O)c(C(C)(C)C)c1	0.431
C#CCN(C)CCCOc1ccc(Cl)cc1Cl [Clorgyline hydrochloride]	2.81
CCc1cnn2c(NCc3ccc[n+]([O-])c3)cc(N3CCCC[C@H]3CCO)nc12	< -6.01
C[C@@]1(c2cc(-c3cncnc3)c(F)cc2F)CCSC(N)=N1	-3.62
COc1ccccc1N1CCN(CCCNc2cc(=O)n(C)c(=O)n2C)CC1 [Urapidil HCl]	2.68
COc1ccccc1N1CCN(CCCNc2cc(=O)n(C)c(=O)n2C)CC1 [Urapidil hydrochloride]	1.36
O=C(Nc1cccc(Nc2ncc(Br)c(NCCc3cnc[nH]3)n2)c1)N1CCCC1	-6.61
COc1nc(N)nc2c1ncn2[C@@H]1O[C@H](CO)[C@@H](O)[C@@H]1O [Nelarabine]	-0.851
O=C(CCCN1CCC(O)(c2cccc(C(F)(F)F)c2)CC1)c1ccc(F)cc1 [Trifluperidol hydrochloride]	0.681
O=C(/C=C/C=C/c1ccc2c(c1)OCO2)N1CCCCC1 [Piperine]	1.07
O=c1c2ccccc2nc2n1CCc1c-2[nH]c2ccccc12 [Rutaecarpine]	-1.73 ± 0.48
CN(C)c1ccccc1CN1CCCN(Cc2ccccc2N(C)C)C1c1ccncc1	< -3.85
CCC(=O)OCC(=O)[C@@]1(OC(=O)CC)[C@@H](C)C[C@H]2[C@@H]3CCC4=CC(=O)C=C[C@]4(C)[C@@]3(Cl)[C@@H](O)C[C@@]21C [Beclomethasone dipropionate]	7.8
COCC(=O)O[C@]1(CCN(C)CCCc2nc3ccccc3[nH]2)CCc2cc(F)ccc2[C@@H]1C(C)C [Mibefradil dihydrochloride]	< -3.97
C[C@H](CSC(=O)c1ccccc1)C(=O)N1C[C@@H](Sc2ccccc2)C[C@H]1C(=O)O [Zofenopril calcium]	-1.43
CN1CCOC(c2ccccc2)c2ccccc2C1 (centres undefined) [Nefopam HCl]	0.913
N=C(N)NCCCCN [Agmatine sulfate]	-1.14
CN1CCC(=C2c3ccccc3CCc3sccc32)CC1 [Pizotifen Malate]	-6.09

SMILES	MBP+ mature oligodendrocyte number
COc1ncc(-c2ccc3nccc(-c4ccnnc4)c3c2)cc1NS(=O)(=O)c1ccc(F)cc1F	< -6.01
CCN(CC)CCOc1ccc(C(=C(Cl)c2ccccc2)c2ccccc2)cc1 [Clomifene citrate]	< -4.81
COc1ccc(NC(=O)c2ccc(-c3ccc(-c4noc(C)n4)cc3C)cc2)cc1N1CCN(C)CC1	< -3.97
CCCCNc1ccc(C(=O)OCCN(C)C)cc1 [Tetracaine hydrochloride]	0.753
CCCCNc1ccc(C(=O)OCCN(C)C)cc1 [Tetracaine HCl]	1.01
COc1ccc2c(c1)CC[C@@H]1[C@@H]2CC[C@]2(C)[C@@H](NCCCCCCN3C(=O)CCC3=O)CC[C@@H]12	0.774
CCCCCOC(=O)Nc1nc(=O)n([C@@H]2O[C@H](C)[C@@H](O)[C@H]2O)cc1F [Capecitabine]	-0.15 ± 1.4
COc1ccccc1N1CCN(CCCCNC(=O)c2ccc3ccccc3c2)CC1	-1.65
Cc1cc(-c2ncc(CC(=O)Nc3ccc(-c4cnccn4)cn3)cc2C)ccn1	13.8
Cc1cnc(C(=O)NCCc2ccc(S(=O)(=O)NC(=O)NC3CCCCC3)cc2)cn1 [Glipizide]	0.00129 ± 0.99
CC(C)NC[C@H](O)COc1cccc2[nH]ccc12 [S(-)-Pindolol]	-0.805
CN1CCC(NC(=O)c2cc(-c3c(O)cc(O)cc3Oc3ccc([N+](=O)[O-])cc3)on2)CC1	-6.27
O=C1[C@H](CC[C@H](O)c2ccc(F)cc2)[C@@H](c2ccc(O)cc2)N1c1ccc(F)cc1 [Ezetimibe]	2.95
COC(=O)C1=C(C)NC(C)=C(C(=O)OCCN(C)Cc2ccccc2)C1c1cccc([N+](=O)[O-])c1 (centres undefined) [Nicardipine HCl]	4.12
COC(=O)C1=C(C)NC(C)=C(C(=O)OCCN(C)Cc2ccccc2)C1c1cccc([N+](=O)[O-])c1 (centres undefined) [Nicardipine hydrochloride]	-0.519
Cc1nc(C#Cc2ccnc(Cl)c2)c(C)n1-c1ccc(OC(F)(F)F)cc1	-4.58
OC[C@H]1O[C@@H](c2ccc(Cl)c(Cc3ccc(O[C@H]4CCOC4)cc3)c2)[C@H](O)[C@@H](O)[C@@H]1O	3.51
Cc1cc(-c2ccc(CC(=O)Nc3ccc(-c4cccnc4)cc3)cc2)ccn1	23.2
COCCOc1ccc2c(c1)ncn2-c1ccc2cccc(N3CCC(N)CC3)c2n1	< -5.15
Cc1cc(Nc2cc(N3CCN(C)CC3)nc(/C=C/c3ccccc3)n2)n[nH]1	< -6.7
COC(=O)C1=C(C)NC(C)=C(C(=O)OCC(C)C)C1c1ccccc1[N+](=O)[O-] (centres undefined) [Nisoldipine]	< -5.15
Oc1cc(O)c(Cl)cn1 [Gimeracil]	0.883
COc1ccc2cc(OCC3(C(=O)O)CN(C(=O)c4ccc(F)cc4)C3)ccc2c1	-0.0098
CC1(C)CNc2cc(NC(=O)c3cccnc3NCc3ccncc3)ccc21 [Motesanib Diphosphate (AMG-706)]	-1.9
O=C1CCc2ccc(OCCCCN3CCN(c4cccc(Cl)c4Cl)CC3)cc2N1 [Aripiprazole]	5.11
